The list shows a part of the results. The main result of the screen is listed elsewhere. These columns were measured beside it and carry no call.

Holding throughout (test): Primary Screen for Target Class Profiling of Small Molecule Inhibitors of Methyltransferases
Experiment [1] deals with Glycine N-methyltransferase (Homo sapiens) (UniProt Q14749). Conditions: purified enzyme, MTase-Glo SAH luminescence; measured here: GNMT inhibition; at 40 µM; stronger effect = lower value. Summed up: (§1)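 Each enzyme was reacted with SAM and its substrate, with compounds tested once at 40 uM; SAH formed was read by MTase-Glo luminescence.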
The target in experiment [2] is Guanidinoacetate N-methyltransferase (Homo sapiens) (UniProt Q14353). Particulars: purified enzyme, MTase-Glo SAH luminescence; measured here: GAMT inhibition; at 40 µM; stronger effect = lower value. Summed up: as §1
For experiment [3], the target named is Histamine N-methyltransferase (Homo sapiens) (UniProt P50135). Particulars: purified enzyme, MTase-Glo SAH luminescence; measured here: HNMT inhibition; at 40 µM; stronger effect = lower value. Summed up:
as §1

For experiment [4], the target named is Nicotinamide N-methyltransferase (Homo sapiens) (UniProt P40261). Conditions: purified enzyme, MTase-Glo SAH luminescence; measured here: NNMT inhibition; at 40 µM; stronger effect = lower value. Summed up:
as §1

In experiment [5] the target is Phenylethanolamine N-methyltransferase (Homo sapiens) (UniProt P11086). Conditions: purified enzyme, MTase-Glo SAH luminescence; measured here: PNMT inhibition; at 40 µM; stronger effect = lower value. The method in brief:
as §1
On the % scale 0 is the no-effect control and ±100 the full control effect.

For `CN1C(=O)c2cc(C(=O)NCCCN3CCCCC3)nn2CC1(C)C(=O)NC1CCCCC1` (stereo not given), the activity change, negative = inhibition is 2.38% in experiment [1]; 5.89% in experiment [2]; -3.93% in experiment [3]; 6.01% in experiment [4]; 0.153% in experiment [5].

As for `CCCC1c2cccn2CCN1C(=O)Nc1ccc(C)c(F)c1` (stereo not given), the activity change, negative = inhibition was -5.79% in experiment [1]; 0.704% in experiment [2]; -22.4% in experiment [3]; -7.65% in experiment [4]; 1.72% in experiment [5].

Turning to `CC(C)CCn1c(=O)c2ccc(C(=O)NC3CCCCC3)cc2n2c(=O)n(CC(=O)NC(C)C)nc12`, the activity change, negative = inhibition in experiment [1] was 0.801%; in experiment [2], 3.7%; in experiment [3], -0.504%; in experiment [4], -5.51%; in experiment [5], -1.49%.

As for `O=C(NC1CC1)c1nc(-c2cccnc2)c2cnccn12`, the activity change, negative = inhibition is -6.33% in experiment [1]; -1.09% in experiment [2]; -3.26% in experiment [3]; -12.9% in experiment [4]; 1.08% in experiment [5].

Turning to `Cn1cc(CNC(=O)C[C@@H]2C[C@H]3O[C@H](CNC4CCCC4)[C@@H](O)[C@H]3O2)cn1`, the activity change, negative = inhibition in experiment [1] is 1.28%; in experiment [2] it was 2.08%; in experiment [3] it was 3.06%; in experiment [4] it was -2.5%; in experiment [5], 2.2%.

Regarding `CCc1nc(C(N)=O)c(Nc2ccc(N3CCC(N4CCN(C)CC4)CC3)c(OC)c2)nc1NC1CCOCC1`, the activity change, negative = inhibition in experiment [1] was -52.8%; in experiment [2], -8.17%; in experiment [3] it was -57.1%; in experiment [4] it was -18.3%; in experiment [5], -20.1%.

Take `Cn1cc(C(=O)OCC2CCN(CCNS(C)(=O)=O)CC2)c2ccccc21`: the activity change, negative = inhibition in experiment [1] was 2.11%; in experiment [2], 6.64%; in experiment [3] it was 1.78%; in experiment [4] it was -6.97%; in experiment [5], 1.12%.

With `CC1CCCCN1Cc1nnc2cc(-c3nc(-c4ccccc4)no3)ccn12` (stereo not given), the activity change, negative = inhibition in experiment [1] was -1.23%; in experiment [2], 1.91%; in experiment [3] it was 0.105%; in experiment [4], -0.225%; in experiment [5] it was 13.4%.

Consider `CN(C1CCCc2ccccc21)S(=O)(=O)c1cccc(C(F)(F)F)c1` (stereo not given), for which the activity change, negative = inhibition in experiment [1] is -4.45%; in experiment [2], -2.24%; in experiment [3], -0.431%; in experiment [4] it was -9.96%; in experiment [5], -4.87%.

As to `CC1(C)NC(=O)N(CC(=O)N[C@H](Cc2ccccn2)C2CC(O)C2)C1=O` (stereo not given in full), the activity change, negative = inhibition is -0.807% in experiment [1]; 3.8% in experiment [2]; 0.984% in experiment [3]; -2.87% in experiment [4]; 15.8% in experiment [5].

As to `COc1c(F)ccc(C(=O)N2CCC3(CCCNC3)C2)c1F` (stereo not given), the activity change, negative = inhibition was -4.17% in experiment [1]; -2.26% in experiment [2]; -1.05% in experiment [3]; -5.73% in experiment [4]; -17.4% in experiment [5].

As for `COc1ccccc1N1C(=O)CSc2c(c3ccccc3n2C)C1C(=O)NCc1ccc(F)cc1` (stereo not given), the activity change, negative = inhibition in experiment [1] is -6.99%; in experiment [2], -0.793%; in experiment [3], 2.75%; in experiment [4], -2.7%; in experiment [5] it was -1.83%.

Turning to `CC(C)(O)/C=C1/C(=O)C(C)(C)C(=O)C(C)(C)C1(O)O[C@@H]1O[C@H](COC(=O)c2cc(O)c(O)c(O)c2)[C@@H](O)[C@H](O)[C@H]1O` (stereo not given in full), the activity change, negative = inhibition is -0.039% in experiment [1]; -17.9% in experiment [2]; 0.237% in experiment [3]; -27.3% in experiment [4]; -3.7% in experiment [5].

For `CN(Cc1ccccc1)C(=O)Cn1c(=O)oc2cc(S(=O)(=O)N3CCCCC3)ccc21`, the activity change, negative = inhibition in experiment [1] was -5.1%; in experiment [2], 4.37%; in experiment [3], -2.32%; in experiment [4] it was 2.69%; in experiment [5], -6.48%.

Take `COc1ccccc1OC1(C(=O)O)CCN(Cc2ccc(-c3ccn[nH]3)o2)CC1`: the activity change, negative = inhibition in experiment [1] is -3.91%; in experiment [2] it was -2.73%; in experiment [3], 1.31%; in experiment [4], -0.92%; in experiment [5], -18.1%.

On to `CC(C)CN1CCN(C(=O)CC2CCN(S(C)(=O)=O)C2)CC1` (stereo not given), for which the activity change, negative = inhibition in experiment [1] was -3.72%; in experiment [2], -4.71%; in experiment [3], -2.91%; in experiment [4], -6.49%; in experiment [5] it was -10.3%.

As to `CN1CCC2(CCN3CCc4c(oc5ccccc45)C3C2)N(C)C1=O` (stereo not given), the activity change, negative = inhibition is -2.91% in experiment [1]; 14.3% in experiment [2]; 1.74% in experiment [3]; -1.58% in experiment [4]; 9.22% in experiment [5].

Take `CC(C)NC(=O)N1CC[C@H](N=C2Nc3cc(F)ccc3N(CC(F)F)c3ccc(Cl)cc32)C1`: the activity change, negative = inhibition in experiment [1] was 1.96%; in experiment [2], 4.48%; in experiment [3], 5.14%; in experiment [4], -9.62%; in experiment [5] it was 0.694%.

On to `O=C(NCc1ccccc1-c1ccccc1C(=O)NCCc1ccccn1)OCc1ccccc1`, for which the activity change, negative = inhibition in experiment [1] is -4.11%; in experiment [2] it was 5.67%; in experiment [3] it was 11.7%; in experiment [4] it was -13.4%; in experiment [5], -0.904%.

In the case of `Cc1cc2c(cc3n2CC(C)(C(=O)NC2CCCCCCC2)N(CCN(C)C2CCCCC2)C3=O)o1` (stereo not given), the activity change, negative = inhibition in experiment [1] came out at 1.35%; in experiment [2] it was 4.84%; in experiment [3], 3.18%; in experiment [4], 7.83%; in experiment [5], 0.335%.

As to `Cc1cc(NC(=O)CN(C)S(=O)(=O)c2ccc3[nH]c4c(c3c2)CCCC4)ccc1Br`, the activity change, negative = inhibition in experiment [1] was 0.612%; in experiment [2] it was 3.93%; in experiment [3], 2.83%; in experiment [4], -4.75%; in experiment [5], 8.95%.

Regarding `O=c1c2ccccc2n2c(=O)n(Cc3c(F)cccc3Cl)nc2n1Cc1ccc(F)cc1`, the activity change, negative = inhibition in experiment [1] amounted to 9.62%; in experiment [2], 2.55%; in experiment [3], 9.77%; in experiment [4], 12.3%; in experiment [5], 9.61%.

For `COc1ccccc1CCNC(=O)c1ncn2c1C(=O)N(C1CC1)C(C)(C(=O)NC1CCCC1)C2` (stereo not given), the activity change, negative = inhibition came out at 2.13% in experiment [1]; 0% in experiment [2]; 8.84% in experiment [3]; 1.28% in experiment [4]; 4.07% in experiment [5].

Turning to `CCc1ccc(N2C(=O)c3cc4sccc4n3CC2(C)C(=O)NC2CCCCCCC2)cc1` (stereo not given), the activity change, negative = inhibition in experiment [1] is -1.12%; in experiment [2], 3.52%; in experiment [3], 3.1%; in experiment [4], 8.12%; in experiment [5], -1.61%.

For the compound `CCCNC(=O)Cn1nc2nc(Nc3ccc(F)cc3)ccn2c1=O`, the activity change, negative = inhibition in experiment [1] was -6.95%; in experiment [2], 1.52%; in experiment [3] it was -1.96%; in experiment [4], -4.79%; in experiment [5], -4.62%.

With `CC(C)Cn1c(=O)c2ccccc2n2c(SCC(=O)Nc3cccc(F)c3)nnc12`, the activity change, negative = inhibition is -0.804% in experiment [1]; 0% in experiment [2]; 7.03% in experiment [3]; 1.76% in experiment [4]; 3.01% in experiment [5].

Take `CC(C)NC(=O)c1ccc2c(=O)n(Cc3ccccc3)c3nn(CC(=O)Nc4ccccc4)c(=O)n3c2c1`: the activity change, negative = inhibition in experiment [1] is -1.65%; in experiment [2], -2.36%; in experiment [3] it was -1.11%; in experiment [4] it was -6.14%; in experiment [5], -4.2%.

Consider `COc1ccc(N2CCN(C(CNS(=O)(=O)c3ccc(OC)cc3)c3ccco3)CC2)cc1` (stereo not given), for which the activity change, negative = inhibition in experiment [1] was 11.6%; in experiment [2], 0.267%; in experiment [3], 8.82%; in experiment [4], -1.38%; in experiment [5], 4.28%.

These data come from PubChem BioAssay AID1745853 (National Center for Advancing Translational Sciences (NCATS), 2022).
